According to article PMC2970546:
These are yes or no findings as the source states them, for the method shown. Some entries that bind do so weakly or less than the wild type.

Sequences of proteins named here, by UniProt entry; tags and fusion partners are left off. A change or cut given only in a name is not applied to a line headed by its entry. A line that says so, or that is headed by a name, gives the form on record, which may keep a tag or linker.
human septin 3 (Q9UH03-2, form named): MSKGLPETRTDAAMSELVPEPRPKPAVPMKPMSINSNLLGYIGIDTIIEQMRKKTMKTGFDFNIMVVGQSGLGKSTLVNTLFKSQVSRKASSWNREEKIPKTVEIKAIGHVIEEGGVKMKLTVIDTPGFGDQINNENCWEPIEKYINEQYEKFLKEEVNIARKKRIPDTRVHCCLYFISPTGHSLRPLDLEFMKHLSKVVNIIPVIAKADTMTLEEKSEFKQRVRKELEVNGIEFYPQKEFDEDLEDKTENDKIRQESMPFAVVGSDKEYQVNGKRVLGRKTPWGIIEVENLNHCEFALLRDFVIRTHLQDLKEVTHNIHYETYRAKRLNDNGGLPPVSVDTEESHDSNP

Columns and labels:
Assay in all cases: two-hybrid; LexA-septin bait (modified pBTM116) in yeast L40 screened against human fetal brain and human leukocyte cDNA libraries (pACT2); minimal medium without Trp, Leu, His, with 5 mM 3-AT; every clone confirmed one-to-one with its bait by beta-galactosidase filter assay, empty bait vector as control
[1] = biological target: T1, human septin 9, transcript variant 3, protein isoform c, full length (human) (UniProt Q9UHD8)
T1 sequence: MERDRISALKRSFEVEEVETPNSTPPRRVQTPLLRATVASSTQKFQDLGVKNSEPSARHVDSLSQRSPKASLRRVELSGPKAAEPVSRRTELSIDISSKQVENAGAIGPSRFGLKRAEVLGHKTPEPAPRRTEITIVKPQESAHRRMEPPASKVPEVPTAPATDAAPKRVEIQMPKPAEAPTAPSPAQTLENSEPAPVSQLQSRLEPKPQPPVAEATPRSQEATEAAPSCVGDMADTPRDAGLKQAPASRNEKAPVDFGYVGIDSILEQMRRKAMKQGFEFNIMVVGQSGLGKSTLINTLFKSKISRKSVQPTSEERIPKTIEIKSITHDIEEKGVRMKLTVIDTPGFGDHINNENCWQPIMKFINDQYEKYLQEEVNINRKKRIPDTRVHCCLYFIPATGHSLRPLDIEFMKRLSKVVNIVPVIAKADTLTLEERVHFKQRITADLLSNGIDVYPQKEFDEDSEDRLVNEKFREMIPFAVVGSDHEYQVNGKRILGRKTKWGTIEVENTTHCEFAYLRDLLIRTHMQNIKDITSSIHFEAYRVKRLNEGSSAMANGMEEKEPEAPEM

[2] = biological target: T2, human septin 6 (human) (UniProt Q14141)
T2 sequence: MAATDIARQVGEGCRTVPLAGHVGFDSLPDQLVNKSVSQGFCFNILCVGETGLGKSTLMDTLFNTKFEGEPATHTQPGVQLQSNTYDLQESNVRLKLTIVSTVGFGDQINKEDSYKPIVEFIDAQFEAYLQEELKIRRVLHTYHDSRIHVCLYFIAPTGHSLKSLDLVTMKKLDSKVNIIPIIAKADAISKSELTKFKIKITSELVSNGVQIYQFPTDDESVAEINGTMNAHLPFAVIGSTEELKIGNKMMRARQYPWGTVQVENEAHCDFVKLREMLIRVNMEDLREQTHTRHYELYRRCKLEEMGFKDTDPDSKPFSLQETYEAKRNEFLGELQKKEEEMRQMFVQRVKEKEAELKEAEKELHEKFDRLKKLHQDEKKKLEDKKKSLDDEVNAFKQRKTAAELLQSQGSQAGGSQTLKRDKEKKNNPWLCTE

[3] = biological target: human septin 3 (human) (UniProt Q9UH03)
[4] = biological target: T3, human septin 10 (human) (UniProt Q9P0V9)
T3 sequence: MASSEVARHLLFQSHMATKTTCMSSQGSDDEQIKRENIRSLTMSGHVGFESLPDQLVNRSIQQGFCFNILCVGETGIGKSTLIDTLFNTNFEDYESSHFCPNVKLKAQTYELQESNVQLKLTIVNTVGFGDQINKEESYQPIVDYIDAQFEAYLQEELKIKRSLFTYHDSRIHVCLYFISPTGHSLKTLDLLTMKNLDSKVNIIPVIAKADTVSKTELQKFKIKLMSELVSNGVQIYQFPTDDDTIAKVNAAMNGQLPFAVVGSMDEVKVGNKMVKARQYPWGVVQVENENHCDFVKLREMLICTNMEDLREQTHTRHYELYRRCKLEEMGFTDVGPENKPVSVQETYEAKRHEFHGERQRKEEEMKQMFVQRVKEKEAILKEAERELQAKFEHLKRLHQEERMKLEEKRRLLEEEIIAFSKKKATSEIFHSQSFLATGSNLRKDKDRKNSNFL

binding [1]: no binding
binding [2]: binds
binding [3]: no binding
binding [4]: no binding
Substance: human septin 3 (from UniProt Q9UH03-2 1-350)
